# Laboratory results published in the supplement of paper PMC3334620.
# In all, about 33,000 sequences were measured (“E-score (-0.5 to 0.5)”: median about -0.053, highest 2% from about 0.37 on). Some of the results follow.
# Target: Hap1 (UniProt P0CE41)
# Assay: PBM E-score (8-mer binding enrichment) (E-score (-0.5 to 0.5)); higher = stronger / more preferred TF binding; most listed sequences are background and not binding sites
# Conditions: protein concentration: 200 nM; construct: GST-DNA-binding domain
# Method in brief: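 For each ungapped eight-base word taken together with its reverse complement, the Universal PBM Analysis Suite assigned an E-score. Binding data came from GST-tagged yeast transcription factors, applied at about 100-200 nM, on universal all-10-mer Agilent arrays made double-stranded by primer extension. Fluorescent anti-GST marked bound protein, and scans were normalised with masliner.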
# Chain of UniProt P0CE41 (P0CE41 whole entry): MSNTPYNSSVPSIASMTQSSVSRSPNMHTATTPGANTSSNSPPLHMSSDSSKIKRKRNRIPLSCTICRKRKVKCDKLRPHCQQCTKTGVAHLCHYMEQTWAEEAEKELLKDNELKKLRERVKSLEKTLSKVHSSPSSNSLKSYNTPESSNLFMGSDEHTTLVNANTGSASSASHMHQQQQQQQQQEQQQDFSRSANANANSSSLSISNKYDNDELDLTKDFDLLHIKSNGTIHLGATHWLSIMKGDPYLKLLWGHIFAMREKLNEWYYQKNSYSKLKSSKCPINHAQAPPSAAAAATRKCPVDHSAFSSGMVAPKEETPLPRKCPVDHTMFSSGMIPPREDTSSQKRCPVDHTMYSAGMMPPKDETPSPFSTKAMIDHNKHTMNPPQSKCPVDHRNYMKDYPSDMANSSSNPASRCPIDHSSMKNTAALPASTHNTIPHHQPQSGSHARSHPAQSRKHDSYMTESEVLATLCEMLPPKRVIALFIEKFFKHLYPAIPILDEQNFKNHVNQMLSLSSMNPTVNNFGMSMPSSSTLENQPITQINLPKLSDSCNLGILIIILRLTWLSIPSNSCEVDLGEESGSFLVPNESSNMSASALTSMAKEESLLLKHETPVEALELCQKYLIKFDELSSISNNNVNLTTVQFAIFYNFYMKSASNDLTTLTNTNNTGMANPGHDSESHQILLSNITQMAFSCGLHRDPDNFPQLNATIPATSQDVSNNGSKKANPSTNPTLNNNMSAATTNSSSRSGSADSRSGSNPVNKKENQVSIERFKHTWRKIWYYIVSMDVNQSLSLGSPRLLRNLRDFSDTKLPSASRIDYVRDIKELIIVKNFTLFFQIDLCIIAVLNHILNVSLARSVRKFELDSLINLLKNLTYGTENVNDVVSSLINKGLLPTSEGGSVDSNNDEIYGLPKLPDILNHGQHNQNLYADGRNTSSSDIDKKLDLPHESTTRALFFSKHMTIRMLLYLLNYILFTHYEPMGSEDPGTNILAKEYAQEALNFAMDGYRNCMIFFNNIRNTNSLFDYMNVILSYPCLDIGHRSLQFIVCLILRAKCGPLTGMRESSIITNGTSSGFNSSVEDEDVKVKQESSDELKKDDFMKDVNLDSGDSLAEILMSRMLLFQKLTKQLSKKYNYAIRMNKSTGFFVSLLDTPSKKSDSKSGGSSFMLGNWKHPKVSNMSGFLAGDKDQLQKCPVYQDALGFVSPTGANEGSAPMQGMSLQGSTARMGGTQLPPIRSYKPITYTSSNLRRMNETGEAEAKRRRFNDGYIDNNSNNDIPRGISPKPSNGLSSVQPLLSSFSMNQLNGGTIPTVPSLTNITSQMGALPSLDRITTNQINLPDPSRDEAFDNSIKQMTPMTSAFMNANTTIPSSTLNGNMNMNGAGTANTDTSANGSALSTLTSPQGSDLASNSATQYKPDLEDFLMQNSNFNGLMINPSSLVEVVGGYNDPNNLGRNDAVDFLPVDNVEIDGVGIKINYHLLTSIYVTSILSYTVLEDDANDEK
row,Sequence,PBM E-score
1,GTAGGACA,0.0423
2,CTTGAGCA,-0.343
3,ACGGCAAT,0.254
4,CGGAATCC,0.313
5,CTCGTGCA,-0.208
6,AATCCATA,0.00302
7,CGCGATAC,0.17
8,CCACGTCG,-0.0481
9,AGAATCAC,0.0502
10,GCTTACTA,-0.243
11,ACAACGGG,0.222
12,CGACTAGA,-0.154
13,CCAGGCTA,-0.186
14,ACTCACCG,0.151
15,ACAAGAAA,0.00518
16,ACCAGGAC,-0.0159
17,AGGCGAGA,-0.159
18,AGAATGAG,-0.231
19,CGTAGGAC,0.00085
20,GACACAAA,0.132
21,CCTTTCTA,-0.03
22,TGAGACCA,-0.264
23,ATCTGTTG,-0.0716
24,AGCTGCGG,0.191
25,GCGCTATA,-0.0951

row,Sequence,PBM E-score
1,CACGTTAA,-0.207
2,ACAGATCG,0.0276
3,CTGCACGC,-0.107
4,AAGCCTAG,-0.133
5,AGACAATC,-0.0273
6,AAAGCTCA,-0.252
7,GAAACCCA,0.148
8,CTTAACAA,-0.0403
9,AGTCCCGG,0.322
10,GCGCTCAC,-0.0742
11,ACAATGGG,0.0849
12,AGTATAAA,0.24
13,CGTCTGTA,-0.0818
14,GAGCGGGC,0.0956
15,AGGATGAA,-0.0625
16,ATGGGCAC,0.00145
17,CTAGGACC,-0.00968
18,AGTAGAGA,-0.216
19,CCCGCGTA,0.139
20,CTCGGTAC,0.197
21,TACCGGAA,0.442
22,CCCGACAA,0.311
23,GCCGGCCA,0.284
24,ACTCAACC,-0.0121
25,GAGCTAAC,0.2

row,Sequence,PBM E-score
1,AGTCAGTC,-0.186
2,AATTCCGG,0.451
3,ACCCCAAT,-0.223
4,CGATGCCG,0.179
5,CCCATCCA,-0.125
6,CAAAGCAA,0.0207
7,CGAGCGGC,0.238
8,ATAATTTC,0.146
9,GCTCCTCA,-0.218
10,AGTCAGTA,-0.222
11,GCCAAACC,0.0907
12,ATCCTATC,0.158
13,GTGAGACA,-0.0699
14,ATAGGAAA,0.0814
15,AGTCCTTC,-0.0394
16,CCGAAGAA,0.328
17,ACGAACCC,0.183
18,TATACTCA,-0.149
19,TTAGATAA,-0.194
20,CGTGCATA,-0.228
21,ATAAGGTG,0.101
22,GACATCGC,0.136
23,ATGGTCCA,-0.226
24,TCGGACAA,0.394
25,GAATTATC,-0.0341

row,Sequence,PBM E-score
1,CACAAAAC,-0.032
2,CCCCATCC,0.094
3,CTCGTATC,0.00451
4,CGGTTTCC,0.281
5,CAACAGTC,-0.0859
6,AATCACGA,-0.0677
7,CCCTAGGA,-0.214
8,AGGTACAT,-0.257
9,TCTGTCAA,-0.19
10,ATGTCCGC,0.374
11,CTGTCTGA,-0.128
12,CAAGCTGC,0.073
13,CCAAGGAC,-0.213
14,CAATAACA,-0.223
15,AGTGCTAC,-0.274
16,AGAATTGC,-0.0636
17,TGAGCAAA,-0.0621
18,AGAACGCA,-0.145
19,TCGATCAA,-0.151
20,CTCGCGTC,0.0937
21,CAATATAC,-0.105
22,AGTTGACA,-0.211
23,ACCGCATA,0.141
24,CCGGCGTC,0.308
25,ACACCGAT,0.336

row,Sequence,PBM E-score
1,CCTACATC,0.0921
2,GCTCATCA,-0.0635
3,ACAGACAC,-0.0222
4,ACTATTCT,-0.0623
5,CGTGCTTA,-0.0624
6,GCCATCCC,-0.0981
7,GGTATGAA,-0.131
8,GGGTTGCA,-0.0863
9,CTGCGTGA,-0.0972
10,AAGATTGC,-0.085
11,CGGTATTC,0.304
12,AAAGTTAT,0.0134
13,CCAGATAG,-0.308
14,ATGGAGAC,-0.0655
15,ATTATATC,0.126
16,GAGCCCAA,-0.156
17,CATGCACC,-0.0714
18,CTCGAGTC,-0.169
19,GGTTAGAA,-0.101
20,TACTAGAA,-0.0532
21,ATCTCGTA,-0.144
22,ACGTAAGC,-0.106
23,AACGGAGT,0.373
24,CGAGGTGC,0.196
25,GCTAGCTA,-0.199

row,Sequence,PBM E-score
1,GTTGCGTA,-0.0346
2,CGAAATAC,0.163
3,AAGCTATA,-0.185
4,AGCAAATA,-0.0902
5,GGCTCTAA,0.113
6,CAAGGGTC,0.0456
7,CGTAACGC,0.0437
8,AGGTCAAG,-0.17
9,GCAGCTCC,-0.045
10,CCCGCTTA,0.068
11,CAGCCATG,-0.281
12,GAAACTCC,0.172
13,CTTTTATC,0.295
14,ATTTCGAA,0.00741
15,CTTGTCCC,0.174
16,GGTGAAAC,0.158
17,TCAGATCA,-0.289
18,GTACGAGA,-0.013
19,ACATGACC,-0.189
20,AGTAAGAC,-0.13
21,ACGCAGAG,-0.138
22,GGTTAAGA,0.0931
23,CAGGCGAC,0.0654
24,AGTGTGGG,-0.082
25,GGCGATTA,0.29

row,Sequence,PBM E-score
1,AGCAAAGG,-0.123
2,AATGCTAA,-0.147
3,GGCAGATA,0.137
4,CCCACCGA,0.0319
5,CTATCTGA,-0.318
6,GCCGTCGC,0.0639
7,TAATCTGA,-0.00376
8,ACGCTTTA,-0.238
9,CGATTTCC,0.294
10,CAGGTCAC,-0.34
11,AACTTGAG,-0.183
12,ATGTGCTA,0.0588
13,GTCCCACA,-0.0652
14,AGTAACTC,0.0357
15,CATCCACA,-0.161
16,CGACCATC,0.061
17,GTAGTACA,-0.194
18,ATCACGAT,-0.186
19,ACGCTAAG,-0.259
20,GGACAGGA,-0.138
21,ATCGAAGG,-0.0491
22,GTGTGAAA,-0.146
23,AAAAACGT,-0.122
24,AGGCTTAC,-0.00465
25,CGGCATAC,0.196

row,Sequence,PBM E-score
1,CACACGAC,-0.152
2,AAGTTGTG,-0.103
3,AACAAATA,0.0382
4,ATTACACG,0.0389
5,AGGGTAAG,0.0224
6,TAAACGCA,-0.181
7,AGATGAAT,-0.22
8,TCCCACGA,-0.0711
9,CCGGACTA,0.404
10,GCTAGGTA,-0.167
11,CATACGTA,-0.0246
12,GTGATCTA,0.0438
13,ACCACATA,-0.107
14,ACGCATCG,0.0393
15,GAACGTAC,-0.147
16,ATAACTCA,-0.0521
17,CTCTTTAA,-0.192
18,ACTCTTGA,-0.281
19,GGGCATAA,0.163
20,TCAATTAA,-0.0848
21,GGAGCGAC,0.106
22,CGTTGGGC,0.0102
23,GAACTCTA,-0.125
24,AGGCTGAT,-0.287
25,CCAAAAAA,-0.0319

row,Sequence,PBM E-score
1,GCTCCCCC,-0.0262
2,AATATCCC,0.109
3,ATTAGGGC,-0.0938
4,CAAATGCG,-0.0421
5,ATTGAACC,-0.0801
6,AGCCGCAC,0.101
7,AACGTCAG,-0.182
8,CATCGTTC,-0.179
9,AACGCTGT,0.0217
10,TGAGGGCA,-0.102
11,GGGTCAAC,0.0925
12,GGGTTCGA,-0.06
13,ACATCTAC,-0.0567
14,GCAGTTAA,0.136
15,TCCTACCA,-0.195
16,ATTCCTTG,-0.0522
17,GAAGGAAA,-0.167
18,CTAGCCTA,0.0474
19,CGCCCTTC,0.109
20,CCTGACGA,-0.23
21,AGGACGGG,-0.0193
22,TAGCGTAA,-0.00108
23,CTCTGCGC,0.02
24,AGTATTGC,-0.0662
25,GGTACAAC,-0.0316

row,Sequence,PBM E-score
1,GAATTTCA,-0.117
2,CTCATTGC,-0.113
3,CCAGGCAC,-0.107
4,CCCTCTCG,-0.0046
5,CAACCAAC,-0.1
6,TTCGGAAA,0.389
7,ATTAGATA,-0.203
8,AGCCTCCA,-0.219
9,GAACTTCA,-0.0792
10,GGTGTCAA,-0.0329
11,AGTGCCGA,0.273
12,GAGATAGC,0.0742
13,CAGAGTTC,-0.0889
14,CCCGCTAG,0.204
15,CGCCTCAC,-0.0389
16,GCTAAAAC,0.0818
17,AACAATAT,0.112
18,CACCGGAG,0.341
19,AGGGGAGC,-0.0321
20,ACAAACCC,0.127
21,GGACGGCC,0.227
22,CTAATTAA,-0.22
23,CTTAATGC,0.0397
24,AAACAATT,-0.068
25,AAACGGTG,-0.173

row,Sequence,PBM E-score
1,TACGCCCA,-0.0723
2,CGGTATAG,0.202
3,CATCCTTC,-0.15
4,AACCACTT,-0.118
5,AGCTTCCC,-0.0873
6,TGCTACAA,-0.0752
7,AACCTGGA,-0.219
8,CCCCTCAG,-0.14
9,CATACAAC,-0.18
10,CCGGATTC,0.323
11,CTCCTACA,-0.267
12,ATGCTCAC,-0.164
13,CCTTCGCC,0.0382
14,ATTCGCGG,0.246
15,ACATCTCC,0.283
16,AAGTCTAA,-0.1
17,CAATTTAG,-0.131
18,TAGGTAAA,-0.131
19,CGGGTCGC,0.261
20,TGTAGAAA,-0.134
21,TCTCATAA,-0.237
22,AATCATAA,-0.225
23,TAAGTGCA,-0.025
24,ATGTGGTC,-0.139
25,CCGCTACC,0.264

row,Sequence,PBM E-score
1,AGACACTA,0.0157
2,GATAGGGA,-0.00736
3,ACCCAAAT,-0.0876
4,GGATGCTA,-0.0224
5,ATGTCCCA,-0.0835
6,ATTCCAAG,-0.177
7,TACCTGCA,-0.0929
8,CACTCGGA,0.277
9,ACCCCGCT,0.244
10,GATAGATC,0.0249
11,GAGAAAGC,0.0166
12,CCAGTTGA,-0.116
13,ACTCCTGA,-0.212
14,AACCACGT,-0.286
15,AGTACACG,-0.0406
16,AGAAACGG,0.0978
17,GCTGATTA,-0.00254
18,GACGCGTA,-0.114
19,GGTAACAA,0.13
20,CATACTAC,-0.0704
21,AGTCGCCG,0.129
22,AAGTTGTC,0.0657
23,CAGCTCGA,-0.0955
24,GAAATCAC,0.103
25,AAAATTCT,-0.108

row,Sequence,PBM E-score
1,CTGTTCCC,-0.0303
2,CGGGGATC,0.335
3,GCGTTTCA,-0.162
4,GGTGTCCA,-0.0962
5,ACTGAAAG,-0.0734
6,CCCTTGGA,-0.152
7,CCAGCGTA,-0.0298
8,ATTACACC,0.00924
9,CTACGCAC,-0.0643
10,CGTTACAC,0.0416
11,AGCTATGC,-0.337
12,CAATGGCA,-0.0882
13,CATCTGAC,-0.147
14,CTACTTAC,-0.149
15,AATTCTGT,-0.0282
16,GCCGAACC,0.322
17,GGTGGGAC,-0.0953
18,AACAATTA,0.0343
19,AACTATCC,0.113
20,CGATCGAA,0.0229
21,ATGGCGCA,0.035
22,AATCCGCG,0.244
23,ACTATTTA,0.11
24,CCTACCCG,0.106
25,GAGTAGTA,-0.0277

row,Sequence,PBM E-score
1,CCAGTACC,0.0753
2,CACATAGC,-0.092
3,AGCCGGGG,0.268
4,AGTATTCC,0.161
5,GCTCCGAA,0.367
6,CAGCACTA,-0.234
7,AAGTATTG,-0.136
8,GGAGCCGA,0.276
9,CCCAGTTC,0.0773
10,TGTCCACA,-0.159
11,TATTTGCA,-0.236
12,ACACTGAT,-0.332
13,GTGTTTGA,-0.238
14,AAGCATTG,-0.304
15,GAACGGAC,0.203
16,AGCCTTAA,0.16
17,AGGAGATC,-0.098
18,AACAAGTG,-0.293
19,AAGGGTAC,-0.173
